# Out of some 310,000 compounds screened, about 2,200 (0.71%) showed an effect of 50% or more. Effects have a minus sign here. This is one part of the list.
# Target: human ether-à-go-go-related gene (hERG) potassium channel (human, UniProt Q12809)
# Assay: primary screen, population patch clamp on CHO cells stably expressing hERG
# Chain of human ether-à-go-go-related gene (hERG) potassium channel (Q12809 whole entry, looked up): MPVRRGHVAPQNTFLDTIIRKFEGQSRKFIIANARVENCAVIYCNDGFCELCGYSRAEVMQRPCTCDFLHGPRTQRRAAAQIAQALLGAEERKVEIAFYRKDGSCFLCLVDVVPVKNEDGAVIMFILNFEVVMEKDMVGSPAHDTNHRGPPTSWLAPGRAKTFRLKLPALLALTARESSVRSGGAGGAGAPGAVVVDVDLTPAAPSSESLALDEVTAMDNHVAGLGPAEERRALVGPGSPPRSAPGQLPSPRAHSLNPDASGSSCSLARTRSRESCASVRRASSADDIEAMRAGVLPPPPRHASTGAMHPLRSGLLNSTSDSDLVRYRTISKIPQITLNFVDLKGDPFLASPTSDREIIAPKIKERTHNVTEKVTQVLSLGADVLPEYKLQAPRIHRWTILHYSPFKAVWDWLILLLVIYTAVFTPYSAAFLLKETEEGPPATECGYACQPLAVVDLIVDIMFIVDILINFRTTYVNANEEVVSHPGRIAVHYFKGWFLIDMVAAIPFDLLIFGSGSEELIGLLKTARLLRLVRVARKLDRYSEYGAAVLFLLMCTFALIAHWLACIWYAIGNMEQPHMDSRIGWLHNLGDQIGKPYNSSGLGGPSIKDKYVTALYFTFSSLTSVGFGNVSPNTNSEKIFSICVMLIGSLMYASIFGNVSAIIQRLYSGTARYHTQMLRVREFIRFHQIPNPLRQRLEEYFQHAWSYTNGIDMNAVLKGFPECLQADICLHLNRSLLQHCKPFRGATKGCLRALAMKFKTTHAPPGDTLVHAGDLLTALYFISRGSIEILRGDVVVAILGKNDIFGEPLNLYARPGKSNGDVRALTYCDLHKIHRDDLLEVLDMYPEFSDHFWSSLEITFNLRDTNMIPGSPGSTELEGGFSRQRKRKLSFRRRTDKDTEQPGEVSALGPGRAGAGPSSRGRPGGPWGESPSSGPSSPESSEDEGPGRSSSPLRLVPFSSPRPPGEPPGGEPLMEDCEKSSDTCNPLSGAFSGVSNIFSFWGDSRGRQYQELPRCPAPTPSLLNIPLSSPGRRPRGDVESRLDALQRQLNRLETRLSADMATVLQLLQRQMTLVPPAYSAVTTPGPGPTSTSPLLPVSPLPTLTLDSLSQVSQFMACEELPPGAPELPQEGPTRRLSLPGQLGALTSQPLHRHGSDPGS
row,Structure (SMILES),"hERG current change (%, negative = inhibition) at 1uM"
1,O=C(CN1CCN(Cc2ccccc2)CC1)N1CCCc2c1c(=O)oc1ccc(O)cc21,-8.78%
2,O=C(CN(Cc1ccco1)C(=O)c1nsc(Cl)c1Cl)NC1CCCCC1,18.3%
3,Cc1ccccc1NC(=O)n1ncc2cc(Cl)ccc21,19.7%
4,COc1ccc(CCNC(=O)CCC(=O)NC2CCCC(C)C2C)cc1OC (stereo not drawn),18.3%
5,CC(C)(C)n1nnnc1CN(Cc1cccnc1)Cc1ccccc1Cl,-18.2%
6,O=C(CSc1nnc(-c2ccccc2Br)o1)Nc1cccc2ccccc12,3.82%
7,COc1ccccc1C(=O)Nc1ccc(S(=O)(=O)N2CCN(C)CC2)cc1,7.4%
8,COCC(C)NC(=O)c1cc(-c2ccc(O)cc2)on1 (stereo not drawn),11%
9,Cc1ccc(F)cc1NC(=O)CSc1ncccn1,12.9%
10,C=CCN1C(=O)C(Cc2ccc(F)cc2)S/C1=N/N=C/c1ccco1 (stereo not drawn),13.8%
11,Cc1csc(NC(=O)c2ccc(C)c(S(=O)(=O)N3CCOCC3)c2)n1,11.1%
12,COc1ccc(S(=O)(=O)N(CCc2ccccc2)CC(=O)N/N=C/c2ccc3c(c2)OCO3)cc1,1.44%
13,COc1cc(OC)c(OC)cc1/C=N/N(C)c1ccccc1,16.2%
14,COc1cc2c(cc1OC)CN(C(=O)c1ccc(S(=O)(=O)N3CCCCC3)cc1)CC2,14.1%
15,COc1cccc(CC2(CO)CCCN(Cc3cn(C)c4ccccc34)C2)c1 (stereo not drawn),-54.8%
16,CCOC(=O)c1c(NC(=O)c2ccoc2C)sc(C)c1C,11.5%
17,CC(C)C(C(=O)NCc1ccco1)N(C(=O)CNS(=O)(=O)c1ccccc1)c1ccccc1 (stereo not drawn),13.9%
18,COCCNC(=O)c1oc2ccc3c(c2c1C)C(O)CC(C)(C)O3 (stereo not drawn),12.9%
19,CCN(CC)CCNC(=O)NC(=O)c1ccc(Cl)cc1,-11.7%
20,COc1ccc(CCC(=O)Nc2ccc(Br)cn2)cc1,2.97%
21,N/C(=N\OC(=O)c1ccc([N+](=O)[O-])cc1)c1ccccn1,-7.93%
22,CC(=O)c1ccc(OCCCC(=O)N2CCN(S(=O)(=O)c3ccc(C)cc3C)CC2)cc1,-0.226%
23,O=C(CSc1ccccc1)NCc1ccccn1,3.36%

row,Structure (SMILES),"hERG current change (%, negative = inhibition) at 1uM"
1,CC1(C)Cc2c(cnn2-c2ccccc2)-c2c1c1ccccc1n2CC(O)CBr (stereo not drawn),7.39%
2,Cc1nc(N2CCCCC2)sc1C(=O)c1ccc(Cl)c([N+](=O)[O-])c1,15.6%
3,CC(C)CNC(=S)NC(=O)c1ccccc1Cl,5.66%
4,CN(CC(=O)NC(=O)NCc1ccccc1)Cc1ccc(Cl)cc1,14.5%
5,CCOC(=O)C1(CCOc2ccccc2)CCN(Cc2cc(OC)c(O)c(OC)c2)CC1,-66.6%
6,Cc1ccc(C)c(S(=O)(=O)N2CCN(Cc3ccc(O)c4ncccc34)CC2)c1,14.6%
7,Cc1nn(C)cc1CNC(=O)c1cccc(F)c1,8.64%
8,COC(=O)N[C@H](CC(C)=O)c1cccc(C(F)(F)F)c1,17.9%
9,CCCS(=O)(=O)N1CCCC(C(=O)NCC2CCCO2)C1 (stereo not drawn),5.97%
10,NS(=O)(=O)c1cccc(NC(=O)COC(=O)/C=C/c2ccco2)c1,7.3%
11,COc1ccc(S(=O)(=O)N2CCCC2)cc1NC(=O)c1ccccc1F,20.6%
12,Cn1c(CO)cnc1SCc1c(Cl)cccc1Cl,6.9%
13,CSC[C@@H]1NC(=S)N(c2ccc(C)cc2)C1=O,6.69%
14,Cc1noc(C)c1C(=O)N(C)CC(=O)Nc1ccc(F)c(F)c1F,2.21%
15,O=C(CCSc1ccccc1)NNC(=O)c1ccccc1F,14%
16,Cc1ccc(C(=O)COC(=O)CNC(=O)c2ccco2)cc1,13.3%
17,CC(Sc1ccccc1)C(=O)NN=C1CCN(C)CC1 (stereo not drawn),12%
18,COC(=O)CCC(=O)OC1(C)C(=O)C2=CN(C3CCCC3)C(c3ccc(OC)cc3)=CC2=C(Br)C1=O (stereo not drawn),-16.8%
19,CCOc1ccccc1N1CCN(C(=O)NCc2ccc(F)cc2)CC1,4.74%
20,Cc1c(C(=O)Nc2ccc(-c3nnc4n3CCCCC4)cc2)oc2c1ccc1ccccc12,11.1%
21,C=CCn1c([O-])c(C(C)=O)c(=O)[nH]c1=O.C[NH+](C)C,8.55%
22,CSCc1cc(N(C)C)nc(SCc2ccc(Cl)cc2Cl)n1,12.2%
23,O=C(c1ccc(S(=O)(=O)N2CCCC2)cc1)N1CCCCC1,10.8%

row,Structure (SMILES),"hERG current change (%, negative = inhibition) at 1uM"
1,O=C(N=Nc1c(O)n(Cc2ccccc2)c2ccccc12)c1ccncc1,6.56%
2,CN1CC(=O)Nc2ccc(Br)cc2C1=O,15.5%
3,N=c1oc2cc(O)ccc2cc1C(=O)Nc1nc2ccccc2s1,13.4%
4,Cc1nc(C(=O)N/N=C/c2[nH]ncc2Br)cs1,9.54%
5,COc1ccc(C2CC(c3cccc(OC)c3OC)n3nnnc3N2)cc1 (stereo not drawn),-4.26%
6,O=C(CN1CCOCC1)NN1CC(=O)N(c2ccc(Cl)cc2)CC1=O,14.9%
7,CCN(CC)S(=O)(=O)c1cc(C(=O)Nc2ccccn2)ccc1C,1.63%
8,CCC(C)c1ccccc1OCCn1ccnc1.O=C(O)C(=O)O (stereo not drawn),3.68%
9,Cc1ccc(C(=O)C(C)N(C(=O)c2ccc(Cl)cc2Cl)N2C(=O)CCCC2=O)cc1 (stereo not drawn),-5.09%
10,Cc1ccc(NC(=O)C2(NC(=O)c3ccccn3)CCCCC2)cc1Br,10.8%
11,COc1cc(NC(=O)Cn2cnc(S(=O)(=O)N3CCCCC3)c2)cc(OC)c1OC,10.3%
12,CCC(Sc1nc2n[nH]c(C)c2c(=N)n1-c1ccc(C)c(Cl)c1)C(=O)N1CCOCC1 (stereo not drawn),-0.0071%
13,O=C1NC(CCc2ccccc2)C(=O)N1Cc1cccc2ccccc12 (stereo not drawn),12.8%
14,CCOc1ccc(NC(=O)c2cccc(NC3=NC4CS(=O)(=O)CC4S3)c2)cc1 (stereo not drawn),20.7%
15,O=C1CN(S(=O)(=O)c2ccc(Br)cc2)c2ccccc2N1,-0.0372%
16,COc1ccc2c3c([nH]c2c1)C(C)N(C(C)=O)CC3 (stereo not drawn),11.6%
17,COc1cc(O)ccc1C=O,3.19%
18,Cc1cccc(C)c1NC(=O)N1CCC(N2CCCCC2)CC1,11.7%
19,O=C(CNC(=O)N1CC(=O)Nc2ccccc21)Nc1cccc(F)c1,8.7%
20,Cc1nc2ccc(P(=O)(O)O)cc2s1,13.2%
21,O=C(CSc1nnc2ccccn12)Nc1ccc2c(c1)OCCO2,5.15%
22,C/C=N/NC(=O)c1cc(Br)ccc1O,9.07%
23,CN1CCN(c2ccc([N+](=O)[O-])c(-n3nc(-c4ccccc4)c4ccccc4c3=O)c2)CC1,2.21%

row,Structure (SMILES),"hERG current change (%, negative = inhibition) at 1uM"
1,CC(=O)N1N=C(c2c(-c3ccccc3)c3cc(C)ccc3[nH]c2=O)CC1c1ccco1 (stereo not drawn),7.98%
2,CC(C)CCNC(=O)COc1ccc2c(c1)C(=O)CC(C)(C)O2,11.6%
3,CCOc1ccccc1Nc1cc2n(c(=O)n1)CCc1cc(OC)c(OC)cc1-2,13.6%
4,Nc1ccccc1-c1nnc(-c2ccccc2N)n1N,9.04%
5,COc1ccc(C(OCC(O)CN(C)C2CCCCC2)c2ccc(OC)cc2)cc1 (stereo not drawn),-29.3%
6,NS(=O)(=O)c1ccc(N=Cc2c(O)n(-c3nccs3)c(=O)c3ccccc23)cc1,12.2%
7,CCOC(=O)c1sc(N)c(C(N)=O)c1C,12%
8,COCCNC(=S)N1CCCN(c2nc3cc(C)ccc3cc2C#N)CC1,3.65%
9,Cc1ccc(OCCC(=O)Nc2ccccc2C(=O)NC2CC2)cc1,5.49%
10,COc1ccc(CCn2c(=N)c(C(=O)NCCN3CCOCC3)cc3c(=O)n4cccc(C)c4nc32)cc1OC,-44.4%
11,C=CCNC(=S)Nc1ccccc1-c1nnc2n1CCCCC2,16.2%
12,CC(C)(C)C1CCc2c(C(=O)NNC(=O)CCCC(=O)O)csc2C1 (stereo not drawn),10.6%
13,COc1ccc(CN(C)C(=S)Nc2ccc(Cl)cc2)cc1,17.3%
14,COc1ccc(C(c2c(O)ccc3ccccc23)N2CCOCC2)c(OC)c1 (stereo not drawn),18.7%
15,O=C(NCc1cccnc1)Nc1cc(Cl)cc(Cl)c1,5.75%
16,O=C(NCC1CCCO1)c1ccc(NS(=O)(=O)c2cccc([N+](=O)[O-])c2)cc1 (stereo not drawn),5.71%
17,O=C(COC(=O)/C=C/c1cccs1)Nc1ccccc1Cl,10.4%
18,Cc1cc(NC(=O)CSc2nnc(NC(=O)C3CC(=O)N(c4ccccc4C)C3)s2)no1 (stereo not drawn),10.1%
19,COc1cccc(NC(=O)CN(C)C(=O)c2ccc(-n3cncn3)c([N+](=O)[O-])c2)c1,-5.36%
20,O=C(O)c1ccc(Cl)c(S(=O)(=O)N2CCCCCC2)c1,-2.42%
21,COc1cc(C(=O)OCC(=O)NCc2ccccc2)cc(NC(=O)c2ccco2)c1OC,9.14%
